Laboratory results from a collection of fitness landscapes (doi:10.1016/j.celrep.2020.107928).
Whole data set: some 81,000 sequences, median “one-hybrid fitness for binding parS DNA” near -0.17, cut for the highest 2% near 0.51. The list shows a part of the results.

B1: Caulobacter ParB omega fusion; a variant is named by its letters at X, in order, B8GW30 (parent)
chain: MESVVVGEPGMSEGRRGLGRGLSALLGEVDAAPAQAPGEQLGGSREAPIEILQRNPDQPRRTFREEDLEDLSNSIREKGVLQPILVRPSPDTAGEYQIVAGERAWRAAQRAGLKTVPIMVRELDDLAVLEIGIIENVQRADLNVLEEALSYKVLMEKFERTQENIAQTIGKSXSHVANXMRLLXLPDEVQSYLVSGELTAXHARAIAAAADPVALAKQIIEGGLSVRETEALARKAPNLSAGKSKGGRPPRVKDTDTQALESDLSSVLGLDVSIDHRGSTGTLTITYATLEQLDDLCNRLTRGI

Variants of: B1
Assay: one-hybrid fitness for binding parS DNA (scaled: cognate 1, non-cognate 0); higher = stronger binding
Settings: with parS DNA site
Outline: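 Fitness is the rescaled log change in variant-to-wild-type read ratio, measured by Illumina sequencing of plasmids before and after bacterial one-hybrid selection. The scale puts cognate at 1 and non-cognate at 0. Selection of Caulobacter ParB libraries, four specificity codons randomised, took place in E. coli USO with a HIS3 reporter, site 19 bp from the promoter, over 48 hours at 37°C on M9-minus-histidine with 0.1 mM IPTG and 5 mM 3-AT.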

one-hybrid fitness for binding parS DNA, 1:
RAAG

one-hybrid fitness for binding parS DNA, 0.992:
RYTG

one-hybrid fitness for binding parS DNA, 0.923:
RAVG

one-hybrid fitness for binding parS DNA, 0.949:
RYDC

one-hybrid fitness for binding parS DNA, 0.824:
RWTG

one-hybrid fitness for binding parS DNA, 0.273:
EMET

one-hybrid fitness for binding parS DNA, ≤ 0.2:
ILAC
ISYQ
QGYL
LVTC
ALTH
VTLS
LKST
QDPF
QTNM
GLLM
CYRS
YFPR
RGVN
KVRT
VWVT
NSVT
NPPG
HATN
CHPN
FTVS
DSWS
ATMS
SPAW
DDMS
PPAR
SQAS
TRHM
HIDA
YQAS
LKIR
PKQY
GEAG
DHPD
VSKG
LLNA
MLGR
SGPC
AMVI
VSQR
HYVV
IMAE
ALMH
FTAV
KIRI
GRES
QAHA
PLRT
FYEC
HAKC
CLDG
TNFR
AEYL
FMAL
MHTA
ANKG
GHAA
TQIK
LCGA
YYKK
WASM
RCSR
SMRS
CNGG
QKKM
WVAG
ILYD
VRDS
DSGS
GMGY
ELAS
PHQG
SHTA
KNSR
HVIA
TNKN
LPVG
DGVF
RPAW
LTPQ
KNRK
EHRA
TAFS
VAKR
DCRT
IFCR
LDNC
DDPS
QCVK
LHIR
NAFS
ATTV
PCRW
LRSH
GPFS
PTTM
NGDM
AYNR
PKLK
ESNY
ASVN
LCKR
LSSL
TQAG
NLRG
WIYW
MRKI
TCET
DFVR
HPDN
GLTP
GKRR
PIKS
PNCV
TQVF
SRYH
DRAY
RKMK
CCKG
QAQS
MARA
MNTV
VDDR
ASDW
GRLP
GHSR
SYHV
NQPT
YWPV
VEYF
HDIG
VNLD
PYYM
RLVL
KETC
DPKI
KYAT
SRTW
TRCR
QDMS
QDGS
LPET
KCRA
QKRC
THPV
HSLM
RHRL
IMVR
TCNA
ESLG
WYVT
SFYS
HYDY
GKSG
KYFG
HCPV
DWIC
AWIR
YVEG
DWYS
AGMG
IYLA
HACG
QHPK
PKWR
HIAK
CLVS
HKYV
YLGG
SQNT
AYDY
DPSA
YPYP
QYPR
ANQS
QCSW
NGLG
GQDR
YLRR
TVMC
QLHM
EYPW
VSMG
AEDS
RRED
TTTG
CQRT
LISF

one-hybrid fitness for binding parS DNA, 0.946:
RQHC

one-hybrid fitness for binding parS DNA, 0.855:
RKCS
